Experimental data as given in the supplement of paper PMC11876631.
± gives the standard deviation of the averaged measurements. Laboratory Escherichia coli strains with one amino-acid change in an essential protein, pooled on minimal glucose agar with carbenicillin or gentamicin at twice the control MIC (plus kanamycin and chloramphenicol for the plasmids), 48 h. Fold change of barcode share against drug-free plates; higher = less susceptible. Active = above 20 in both replicates (the paper's putatively resistant). '<' = one read or none on drug, '>' = one read or none on a drug-free plate. Shares are relative, so most strains fall below 1 when a few take over. Listed are strains with at least 15 reads on both drug-free plates, and hits; most hits rest on fewer reference reads. Replicate rank correlation about 0.5. Edits are read from barcodes.

B1: hisH V16A (protein)
chain: MNVVILDTGCANLNSAKSAIARHGYEPKVSRDPDVVLLADKLFLPGVGTAQAAMDQVRERELFDLIKACTQPVLGICLGMQLLGRRSEESNGVDLLGIIDEDVPKMTDFGLPLPHMGWNRVYPQAGNRLFQGIEDGAYFYFVHSYAMPVNPWTIAQCNYGEPFTAAVQKDNFYGVQFHPERSGAAGAKLLKNFLEM
B2: hisH V16W (protein)
chain: MNVVILDTGCANLNSWKSAIARHGYEPKVSRDPDVVLLADKLFLPGVGTAQAAMDQVRERELFDLIKACTQPVLGICLGMQLLGRRSEESNGVDLLGIIDEDVPKMTDFGLPLPHMGWNRVYPQAGNRLFQGIEDGAYFYFVHSYAMPVNPWTIAQCNYGEPFTAAVQKDNFYGVQFHPERSGAAGAKLLKNFLEM
B3: hisI M19A (protein)
chain: MLTEQQRRELDWEKTDGLAPVIVQHAVSGEVLMLGYMNPEALDKTLESGKVTFFSRTKQRLWTKGETSGNFLNVVSIAPDCDNDTLLVLANPIGPTCHKGTSSCFGDTAHQWLFLYQLEQLLAERKSADPETSYTAKLYASGTKRIAQKVGEEGVETALAATVHDRFELTNEASDLMYHLLVLLQDQGLDLTTVIENLRKRHQ
B4: hisI M19W (protein)
chain: MLTEQQRRELDWEKTDGLWPVIVQHAVSGEVLMLGYMNPEALDKTLESGKVTFFSRTKQRLWTKGETSGNFLNVVSIAPDCDNDTLLVLANPIGPTCHKGTSSCFGDTAHQWLFLYQLEQLLAERKSADPETSYTAKLYASGTKRIAQKVGEEGVETALAATVHDRFELTNEASDLMYHLLVLLQDQGLDLTTVIENLRKRHQ
B5: hisI M19Q (protein)
chain: MLTEQQRRELDWEKTDGLQPVIVQHAVSGEVLMLGYMNPEALDKTLESGKVTFFSRTKQRLWTKGETSGNFLNVVSIAPDCDNDTLLVLANPIGPTCHKGTSSCFGDTAHQWLFLYQLEQLLAERKSADPETSYTAKLYASGTKRIAQKVGEEGVETALAATVHDRFELTNEASDLMYHLLVLLQDQGLDLTTVIENLRKRHQ
B6: argH W335A (protein)
chain: MALWGGRFTQAADQRFKQFNDSLRFDYRLAEQDIVGSVAWSKALVTVGVLTAEEQAQLEEALNVLLEDVRARPQQILESDAEDIHSWVEGKLIDKVGQLGKKLHTGRSRNDQVATDLKLWCKDTVSELLTANRQLQSALVETAQNNQDAVMPGYTHLQRAQPVTFAHWCLAYVEMLARDESRLQDALKRLDVSPLGCGALAGTAYEIDREQLAGWLGFASATRNSLDSVSDRDHVLELLSAAAIGMVHLSRFAEDLIFFNTGEAGFVELSDRVTSGSSLMPQKKNPDALELIRGKCGRVQGALTGMMMTLKGLPLAYNKDMQEDKEGLFDALDTALDCLHMAALVLDGIQVKRPRCQEAAQQGYANATELADYLVAKGVPFREAHHIVGEAVVEAIRQGKPLEDLPLSELQKFSQVIDEDVYPILSLQSCLDKRAAKGGVSPQQVAQAIAFAQARLG
B7: hisI M19D (protein)
chain: MLTEQQRRELDWEKTDGLDPVIVQHAVSGEVLMLGYMNPEALDKTLESGKVTFFSRTKQRLWTKGETSGNFLNVVSIAPDCDNDTLLVLANPIGPTCHKGTSSCFGDTAHQWLFLYQLEQLLAERKSADPETSYTAKLYASGTKRIAQKVGEEGVETALAATVHDRFELTNEASDLMYHLLVLLQDQGLDLTTVIENLRKRHQ
B8: hisI M19P (protein)
chain: MLTEQQRRELDWEKTDGLPPVIVQHAVSGEVLMLGYMNPEALDKTLESGKVTFFSRTKQRLWTKGETSGNFLNVVSIAPDCDNDTLLVLANPIGPTCHKGTSSCFGDTAHQWLFLYQLEQLLAERKSADPETSYTAKLYASGTKRIAQKVGEEGVETALAATVHDRFELTNEASDLMYHLLVLLQDQGLDLTTVIENLRKRHQ
B9: hisI V21A (protein)
chain: MLTEQQRRELDWEKTDGLMPAIVQHAVSGEVLMLGYMNPEALDKTLESGKVTFFSRTKQRLWTKGETSGNFLNVVSIAPDCDNDTLLVLANPIGPTCHKGTSSCFGDTAHQWLFLYQLEQLLAERKSADPETSYTAKLYASGTKRIAQKVGEEGVETALAATVHDRFELTNEASDLMYHLLVLLQDQGLDLTTVIENLRKRHQ
B10: hisI V21Q (protein)
chain: MLTEQQRRELDWEKTDGLMPQIVQHAVSGEVLMLGYMNPEALDKTLESGKVTFFSRTKQRLWTKGETSGNFLNVVSIAPDCDNDTLLVLANPIGPTCHKGTSSCFGDTAHQWLFLYQLEQLLAERKSADPETSYTAKLYASGTKRIAQKVGEEGVETALAATVHDRFELTNEASDLMYHLLVLLQDQGLDLTTVIENLRKRHQ
B11: hisI I22A (protein)
chain: MLTEQQRRELDWEKTDGLMPVAVQHAVSGEVLMLGYMNPEALDKTLESGKVTFFSRTKQRLWTKGETSGNFLNVVSIAPDCDNDTLLVLANPIGPTCHKGTSSCFGDTAHQWLFLYQLEQLLAERKSADPETSYTAKLYASGTKRIAQKVGEEGVETALAATVHDRFELTNEASDLMYHLLVLLQDQGLDLTTVIENLRKRHQ
B12: hisI I22W (protein)
chain: MLTEQQRRELDWEKTDGLMPVWVQHAVSGEVLMLGYMNPEALDKTLESGKVTFFSRTKQRLWTKGETSGNFLNVVSIAPDCDNDTLLVLANPIGPTCHKGTSSCFGDTAHQWLFLYQLEQLLAERKSADPETSYTAKLYASGTKRIAQKVGEEGVETALAATVHDRFELTNEASDLMYHLLVLLQDQGLDLTTVIENLRKRHQ
B13: hisI I22Q (protein)
chain: MLTEQQRRELDWEKTDGLMPVQVQHAVSGEVLMLGYMNPEALDKTLESGKVTFFSRTKQRLWTKGETSGNFLNVVSIAPDCDNDTLLVLANPIGPTCHKGTSSCFGDTAHQWLFLYQLEQLLAERKSADPETSYTAKLYASGTKRIAQKVGEEGVETALAATVHDRFELTNEASDLMYHLLVLLQDQGLDLTTVIENLRKRHQ
B14: argH W335Q (protein)
chain: MALWGGRFTQAADQRFKQFNDSLRFDYRLAEQDIVGSVAWSKALVTVGVLTAEEQAQLEEALNVLLEDVRARPQQILESDAEDIHSWVEGKLIDKVGQLGKKLHTGRSRNDQVATDLKLWCKDTVSELLTANRQLQSALVETAQNNQDAVMPGYTHLQRAQPVTFAHWCLAYVEMLARDESRLQDALKRLDVSPLGCGALAGTAYEIDREQLAGWLGFASATRNSLDSVSDRDHVLELLSAAAIGMVHLSRFAEDLIFFNTGEAGFVELSDRVTSGSSLMPQKKNPDALELIRGKCGRVQGALTGMMMTLKGLPLAYNKDMQEDKEGLFDALDTQLDCLHMAALVLDGIQVKRPRCQEAAQQGYANATELADYLVAKGVPFREAHHIVGEAVVEAIRQGKPLEDLPLSELQKFSQVIDEDVYPILSLQSCLDKRAAKGGVSPQQVAQAIAFAQARLG
B15: hisI I22P (protein)
chain: MLTEQQRRELDWEKTDGLMPVPVQHAVSGEVLMLGYMNPEALDKTLESGKVTFFSRTKQRLWTKGETSGNFLNVVSIAPDCDNDTLLVLANPIGPTCHKGTSSCFGDTAHQWLFLYQLEQLLAERKSADPETSYTAKLYASGTKRIAQKVGEEGVETALAATVHDRFELTNEASDLMYHLLVLLQDQGLDLTTVIENLRKRHQ
B16: hisI V23A (protein)
chain: MLTEQQRRELDWEKTDGLMPVIAQHAVSGEVLMLGYMNPEALDKTLESGKVTFFSRTKQRLWTKGETSGNFLNVVSIAPDCDNDTLLVLANPIGPTCHKGTSSCFGDTAHQWLFLYQLEQLLAERKSADPETSYTAKLYASGTKRIAQKVGEEGVETALAATVHDRFELTNEASDLMYHLLVLLQDQGLDLTTVIENLRKRHQ
B17: hisI V23W (protein)
chain: MLTEQQRRELDWEKTDGLMPVIWQHAVSGEVLMLGYMNPEALDKTLESGKVTFFSRTKQRLWTKGETSGNFLNVVSIAPDCDNDTLLVLANPIGPTCHKGTSSCFGDTAHQWLFLYQLEQLLAERKSADPETSYTAKLYASGTKRIAQKVGEEGVETALAATVHDRFELTNEASDLMYHLLVLLQDQGLDLTTVIENLRKRHQ
B18: hisI V23Q (protein)
chain: MLTEQQRRELDWEKTDGLMPVIQQHAVSGEVLMLGYMNPEALDKTLESGKVTFFSRTKQRLWTKGETSGNFLNVVSIAPDCDNDTLLVLANPIGPTCHKGTSSCFGDTAHQWLFLYQLEQLLAERKSADPETSYTAKLYASGTKRIAQKVGEEGVETALAATVHDRFELTNEASDLMYHLLVLLQDQGLDLTTVIENLRKRHQ

These proteins were tested against Escherichia coli (laboratory strain) (assay: barcode share on antibiotic plates over drug-free plates; higher = less susceptible). Conditions: antibiotic: carbenicillin; 2× MIC (3.1 µg/mL).
Experimental: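 A pool of E. coli strains, each edited to carry one amino-acid change in an essential protein, was grown for 48 h on minimal glucose agar with or without antibiotic; strain barcodes were sequenced; mean of two replicates.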

| Protein | fold change of barcode share |
| --- | --- |
| B1 | 0.867 ± 0.24 |
| B2 | 45.8 [active] |
| B3 | 0.432 ± 0.033 |
| B4 | 0.705 ± 0.2 |
| B5 | 0.6661 ± 0.00073 |
| B6 | 0.727 ± 0.092 |
| B7 | 0.967 ± 0.1 |
| B8 | 0.733 ± 0.044 |
| B9 | 2.89 ± 1.5 |
| B10 | 0.4888 ± 0.0027 |
| B11 | 0.656 ± 0.22 |
| B12 | 0.656 ± 0.05 |
| B13 | 0.718 ± 0.19 |
| B14 | 0.565 ± 0.05 |
| B15 | 0.71 ± 0.17 |
| B16 | 1.09 ± 0.35 |
| B17 | 2.15 ± 0.74 |
| B18 | 1.4 ± 0.33 |

Same assay, conditions: antibiotic: gentamicin; 2× MIC (MIC 0.45 µg/mL)

| Protein | fold change of barcode share |
| --- | --- |
| B1 | 0.00818 ± 0.0087 |
| B3 | < 0.0038 |
| B4 | 0.0125 ± 0.012 |
| B5 | 0.0161 ± 0.0076 |
| B6 | 0.199 ± 0.27 |
| B7 | 0.0908 ± 0.095 |
| B8 | < 0.00552 |
| B9 | < 0.00404 |
| B10 | 0.0496 ± 0.047 |
| B11 | 0.0147 ± 0.0047 |
| B12 | 0.0176 ± 0.018 |
| B13 | < 0.00405 |
| B14 | 0.181 ± 0.25 |
| B15 | < 0.00718 |
| B16 | 0.0124 ± 0.0015 |
| B17 | 0.0155 ± 0.0058 |
